Data: PubChem BioAssay AID624296 (National Center for Advancing Translational Sciences (NCATS), 2012)
Hit rate of the full screen: of about 350,000 compounds, about 9,900 (2.8%) were called active. Inconclusive means that the source gave no clear call. Such entries were picked first, then a sample of the others. Calls come from the whole dose curve; as a rule, active = well fitted activation curve with a large enough effect; inconclusive = small, poorly fitted or top-dose-only effect; inactive = no such curve, though single readings can be large or run the other way. No potency is given beside an inconclusive call; the fits are too rough.

Assay: A quantitative high throughput screen for small molecules that induce DNA re-replication in MCF 10a normal breast cells. For activity, positive = re-replication: % of control where 0% means no effect. Note: nearly all actives have a fitted effect of over 50% in size.
Conditions: MCF 10A DNA re-replication, Hoechst nuclear intensity, 48 h; activity, positive = re-replication: at 46.1 µM (top of the series)
Potency is the fitted concentration of half-maximal effect; tags give direction and shape of the fitted curve.

Row | Compound | Potency | activity, positive = re-replication
1 | CCCCNc1ncnc2c1cnn2-c1ccc(Cl)cc1 | inconclusive [activator, full curve] | 
2 | O=c1c2cc(Cl)ccc2nc(-c2ccc([N+](=O)[O-])cc2)n1O | inconclusive [activator, full curve, poor fit] | 
3 | COc1ccc(CN2C(=S)NC(C)(C)CC2(C)O)cc1 (stereo not given) |  | inactive: 9.62%
4 | Cc1nc2c(-c3ccccc3)c(C)[nH]n2c(=O)c1Cl | inconclusive [activator, partial curve] | 
5 | CCOC(=O)c1cc2c(=O)n3ccccc3nc2n(Cc2ccco2)c1=NC(=O)c1ccc(OC)cc1 | inconclusive [activator, partial curve, poor fit] | 
6 | O=C(Nc1nnc(-c2ccc(Cl)cc2)o1)c1nc2ccccc2s1 |  | inconclusive: 274% [activator]
7 | CCOc1ccc(S(=O)(=O)Nc2nc3ccccc3nc2Nc2ccc(N3CCOCC3)cc2)cc1 | inconclusive [activator, single point] | 
8 | COc1ccccc1NC(=O)C(C)N(C)Cc1ccc(Cl)s1 (stereo not given) |  | inactive: 4.98%
9 | Cc1ccc(Nc2nc(NCCO)nc(N3CCCC3)n2)cc1 | inconclusive [activator, single point] | 
10 | COc1ccc(C(=O)Nc2cc(C)cc(C)c2)cc1S(=O)(=O)N1CCOCC1 | inconclusive [activator, single point] | 
11 | Fc1cccc(NC(=S)NNc2ccccc2)c1 | inconclusive [activator, single point] | 
12 | O=C(COC(=O)COc1ccc(Cl)cc1)Nc1ncc(Br)s1 | inconclusive [activator, single point] | 
13 | Brc1cc2c(cc1C1Nc3ccccc3C3C=CCC31)OCO2 (stereo not given) | inconclusive [activator, partial curve] | 
14 | CCC(CC)Nc1ccc(C(CC(N)=O)NC(=O)Cc2cccc3ccccc23)cc1[N+](=O)[O-] (stereo not given) | inconclusive [activator, single point] | 
15 | CCC(C)(C)c1ccc(OCCCC[n+]2ccc(C)cc2)c(C(C)(C)CC)c1 | active: 23.1 µM | 
16 | CSCc1c(C(=O)Nc2ccc3c(c2)OCO3)oc2ccccc12 | inconclusive [activator, single point] | 
17 | COc1ccc(OCCSc2nnc3sc4ccccc4n23)cc1 | active: 6.51 µM | 
18 | COc1cccc(C2Nc3c(F)cc(Br)cc3C3C=CCC32)c1OC (stereo not given) | inconclusive [activator, partial curve, poor fit] | 
19 | COc1cccc(-c2cccc(NC(=O)C3CCN(Cc4ccc(C)o4)CC3)c2)c1 |  | inactive: -1.98%
20 | Cc1nn(C)c(C)c1CS(=O)(=O)c1ccccc1 | inconclusive [activator, single point] | 
21 | O=c1ccnc(S/C=C/c2ccccc2)[nH]1 | inconclusive [activator, single point] | 
22 | Cc1cc(NC(=O)c2ccccc2NS(=O)(=O)c2c(C)c(C)cc(C)c2C)no1 | active: 11.6 µM | 
23 | COc1cc(OC)cc(C(=O)N[C@H](C(=O)Nc2nc(-c3ccc(F)c(F)c3)cs2)C(C)C)c1 | inconclusive [activator, single point] | 
24 | N#CCSc1nnc(-c2sc3ccccc3c2Cl)o1 | inconclusive [activator, single point] | 

Row | Compound | Potency | activity, positive = re-replication
25 | CC(OC(=O)c1cc2sccc2n1C)C(=O)NCCc1ccccc1 (stereo not given) | inconclusive [activator, single point] | 
26 | Cc1cc(C(=O)N/N=C/c2ccc(OCc3ccccc3)cc2)c(C)o1 | inconclusive [activator, partial curve, poor fit] | 
27 | O=C(Cc1ccccc1)NCc1ccc(-n2cccc2)cc1 | active: 10.3 µM | 
28 | CCOC(=O)c1ccc(NC(=O)Cc2coc3cc4c(cc23)CCC4)cc1 | inconclusive [activator, single point] | 
29 | C=C1C(=O)[C@@]23[C@H](O)C[C@@H]4C(C)(C)CC[C@H](O)[C@]4(C)[C@@H]2C[C@H](O)[C@@H]1[C@H]3O | active: 6.51 µM | 
30 | O=C(Nc1ccc(Cl)cc1)c1cccnc1N1CCCCC1 | inconclusive [activator, partial curve] | 
31 | O=c1ccc2cc(O)c(O)cc2o1 | inconclusive [activator, single point] | 
32 | COc1ccc2oc(=Nc3cccc(F)c3)c(C(N)=O)cc2c1 |  | inactive: 4.15%
33 | O=c1oc(-c2ccccc2)cc(Cl)c1Cl | active: 2.91 µM | 
34 | O=[N+]([O-])c1ccc(N/N=C/c2cn(-c3ccccc3)nc2-c2ccccc2)cc1 | active: 1.64 µM | 
35 | O=C(Sc1nnc(-c2ccccc2)o1)N1c2ccccc2Sc2ccccc21 |  | inactive: 31.3%
36 | OCCN1CCN(CC(O)COc2ccc(-c3ccccc3)cc2)CC1 (stereo not given) | inconclusive [activator, single point] | 
37 | COc1c(C)cc(Br)cc1C(=O)NC(=S)Nc1ccc(Cl)c(C(=O)O)c1 | inconclusive [activator, partial curve, poor fit] | 
38 | CCN1CCN(c2ccc(S(=O)(=O)N3CCCCC3)cc2NC(=O)Cc2ccccc2)CC1 |  | inactive: 2.85%
39 | O=[N+]([O-])c1ccc(N/N=C/c2cccc(O)c2O)c(S(=O)(=O)N2CCOCC2)c1 |  | inactive: 21.6%
40 | O=C(NCCc1ccccn1)c1c(-c2ccsc2)sc2ccccc12 |  | inactive: -11.4%
41 | COc1cccc(CN2C(=O)[C@@H]3Cc4c([nH]c5ccccc45)C(C)(C)N3C2=O)c1 |  | inactive: -4.37%
42 | O=C(Nc1cccc(Cl)c1N1CCOCC1)c1ccc(Br)o1 | inconclusive [activator, partial curve, poor fit] | 
43 | CC(C)C(=O)Nc1cccc(C(=O)Nc2nncs2)c1 | inconclusive [activator, partial curve, poor fit] | 
44 | O=C(N/N=C/c1cccc2nccnc12)c1ccccc1O | inconclusive [activator, single point] | 
45 | CCCCc1ccc(NC(=S)NCc2cccnc2)cc1 | inconclusive [activator, full curve, poor fit] | 
46 | CCOC1=C/C(=C/c2c(N)n3nc(-c4ccccc4)sc3nc2=O)C=CC1=O | active: 25.9 µM | 
47 | CCOc1ccc(NC(=O)c2cc(=O)[nH]c3ccccc23)cc1 | inconclusive [activator, single point] | 
48 | O=C(Nc1cccnc1Cl)c1cc2ccccc2o1 |  | inactive: 3.19%

Row | Compound | Potency | activity, positive = re-replication
49 | Cn1c(=O)c2c(nc(SC3C(=O)CC(C)(C)CC3=O)n2C)n(C)c1=O | inconclusive [activator, single point] | 
50 | Cn1c(CNC(=O)c2ccc3c(c2)OCO3)nnc1SCC(=O)Nc1ccc(F)cc1F |  | inactive: 0.315%
51 | CC(/C=N/NC(=O)CSc1nc2ccccc2n1C)=C\c1ccco1 | active: 20.6 µM | 
52 | CCOc1ccc(NC(=O)c2cc(Cl)nc3ccccc23)cc1 | inconclusive [activator, single point] | 
53 | CCN(c1cccc(C)c1)S(=O)(=O)c1ccc2c(c1)CCCN2C(C)=O | inconclusive [activator, single point] | 
54 | S=C(NCCC(c1ccccc1)c1ccccc1)Nc1cccc(Cl)c1 | inconclusive [activator, single point] | 
55 | CCOC(=O)c1nnn(-c2nonc2N)c1-c1ccc(Cl)cc1 | inconclusive [activator, partial curve, poor fit] | 
56 | Cn1c(-c2ccccc2)c[n+]2c1-c1ccccc1C2 |  | inactive: 1.45%
57 | Cc1nnnn1CC(=O)Nc1cccc([N+](=O)[O-])c1 |  | inactive: -3.62%
58 | COc1cccc(NC(=S)N2CCC(c3ccc(C)cc3)C2)c1 (stereo not given) | inconclusive [activator, single point] | 
59 | CCN1C(=O)[C@@H]2[C@@H](c3ccc(SC4CCCCC4)cc3)N3CCCC[C@@]3(C(=O)OC)[C@@H]2C1=O | inconclusive [activator, partial curve, poor fit] | 
60 | CC(NS(=O)(=O)c1cccc(C(=O)N(C)Cc2ccc(N3CCOCC3)cc2)c1)c1ccccc1 (stereo not given) |  | inactive: 4.3%
61 | Cc1ccc(S(=O)(=O)CCC(=O)NCCN2C(=O)S/C(=C\c3ccccc3)C2=O)cc1 | inconclusive [activator, full curve, poor fit] | 
62 | CCOc1ccc(Oc2ccccc2NC(=O)C2=COCCO2)cc1 | inconclusive [activator, single point] | 
63 | ONC(=Nc1ccc(Cl)cc1)c1ccc(Cl)cc1 | inconclusive [activator, single point] | 
64 | Cc1ccc(NC(=O)CN2CC(C)SC2=NC2CCCCC2)cc1 (stereo not given) | inconclusive [activator, single point] | 
65 | CN1CCN(C(=S)Nc2ccc([N+](=O)[O-])cc2)CC1 |  | inactive: 7.85%
66 | N#C/C(=C\Nc1ccccc1SC(F)(F)F)c1nc(-c2ccc(F)cc2)cs1 | inconclusive [activator, single point] | 
67 | COc1ccc([N+](=O)[O-])cc1N1C(=O)c2cccc3cccc(c23)C1=O | inconclusive [activator, partial curve, poor fit] | 
68 | CCCCCCNCc1c(F)cccc1Cl | inconclusive [activator, single point] | 
69 | Cc1nn(-c2ccc(N3CCOCC3)nn2)c(C)c1CCC(=O)Nc1ccc(F)cc1 |  | inactive: 3.03%
70 | COc1ccc(NCc2nnc(SCC(=O)Nc3cccc(C)c3)o2)cc1 | inconclusive [activator, partial curve, poor fit] | 
